Experimental data as given in the supplement of paper PMC12217912.
The other results are listed elsewhere or left out. The full chains were built here from the parent and the listed change. Inactive controls read about 0.05.

B1: TEV protease; numbered along this chain (parent)
chain: MGESLFKGPRDYNPISSSICHLTNESDGHTTSLYGIGFGPFIITNKHLFRRNNGTLVVQSLHGVFKVKDTTTLQQHLVDGRDMIIIRMPKDFPPFPQKLKFREPQREERICLVTTNFQTKSMSSMVSDTSCTFPSGDGIFWKHWIQTKDGQCGSPLVSTRDGFIVGIHSASNFTNTNNYFTSVPKNFMELLTNQEAQQWVSGWRLNADSVLWGGHKVFMVKPEEPFQPVKEATQL

Variants of: B1
Test: raw area under fraction-flipped curve 0-4 h after induction (AUC4h, not background-subtracted), DNA-recorder readout of cleavage of the substrate (dimensionless); higher = more cleavage of the substrate by the protease variant
Details: temperature: 34 °C; time window: 0-4 h after rhamnose induction
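Note: Bxb1 expression induced with 0.2% (w/v) L-rhamnose at OD600 near 0.5, cultures sampled hourly, flipped fraction per protease–substrate barcode pair counted by paired-end Illumina sequencing.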

Variant	area with substrate ENLCFQS	area with substrate ENLDFQS	area with substrate ENLEFQS	area with substrate ENLFFQS	area with substrate ENLHFQS	area with substrate ENLKFQS	area with substrate ENLLFQS	area with substrate ENLNFQS	area with substrate ENLPFQS	area with substrate ENLSFQS	area with substrate ENLWFQS	area with substrate ENLGFQS	area with substrate ENLIFQS	area with substrate ENLMFQS	area with substrate ENLQFQS	area with substrate ENLRFQS	area with substrate ENLTFQS	area with substrate ENLVFQS
I139Q	0.0702	0.0555	0.0728	0.0964	0.0469	0.0691	0.0795	0.0643	0.0441	0.071	0.0899							
I139N	0.0678	0.0589	0.06	0.0777	0.0608	0.0633	0.0675	0.0635	0.0735	0.056	0.0456	0.0668	0.0471	0.0653	0.0533	0.0657	0.0613	0.0685
W144L	0.118		0.0568	0.0809		0.0745		0.0746	0.0489	0.0546	0.0848		0.0673					0.105
V113H	0.0804	0.066	0.0628	0.0749	0.0659	0.0607		0.0628		0.0538		0.0734	0.0662	0.0664	0.0515			
T159Y	0.0706	0.0588	0.0466		0.0504	0.0807	0.0635		0.0493		0.0661	0.0722			0.0685			
G153N	0.0528	0.0572	0.065	0.0246	0.0572		0.0439	0.0479	0.04		0.0592		0.0212					
Q118N	0.092	0.0588	0.0668	0.0977	0.0793			0.0614		0.0663						0.0406		0.078
D91C	0.0903			0.0812	0.0769		0.07	0.0685	0.0576				0.0635		0.0945			
P222M	0.0994	0.0647	0.0664	0.0748		0.0814	0.0743	0.0613	0.0702			0.0626	0.0275	0.0557	0.0707	0.063	0.0802	0.0662
E189V	0.0778	0.0687		0.0637	0.0545	0.0776		0.0627	0.0608	0.0723			0.0761	0.072	0.0633	0.0625	0.0473	0.108
P155F	0.0721	0.0551	0.0642		0.0572	0.0644		0.0602	0.0534	0.0517	0.0549	0.0452	0.0458		0.0665	0.0568		
K90I	0.0734	0.0601	0.0719	0.111	0.0733	0.0722	0.0645	0.0654	0.043	0.0618		0.0588	0.0686	0.0772	0.0707	0.0806		
K68F		0.0476		0.0836		0.0743		0.052		0.0669			0.0635					
F133D	0.0759	0.062	0.0573	0.0854	0.062			0.054	0.0538	0.0524				0.0686				0.0798
Q59V	0.0698			0.0455	0.0547			0.0669		0.0663			0.0839			0.0778	0.073	0.0927
L61A		0.0825		0.0812	0.0696	0.0705		0.0447	0.0518	0.0626					0.0653	0.0723		
E231M	0.0583	0.0648	0.0673	0.0978	0.067	0.0891		0.0668	0.0809	0.0543	0.0643	0.0754		0.0819				
P104Y	0.0708	0.0535	0.0545	0.0447	0.055	0.0603	0.0566	0.0573	0.0648	0.0505	0.0434		0.0595	0.0636	0.0409	0.0546		0.0561
E224M	0.054	0.069	0.0755	0.0766		0.0758	0.0788				0.0655		0.0741			0.0617		0.0853
K148N	0.0656	0.0581	0.0612	0.0812			0.0636	0.0731	0.0518	0.0706		0.106	0.0677	0.0717				0.0657
Q198V	0.109	0.0706		0.0988	0.0821				0.0672		0.065		0.0916		0.0598		0.0757	
F218H	0.0694	0.058	0.0659	0.0732	0.0657	0.0689	0.0684	0.0666	0.058	0.0561		0.0862	0.066			0.0642	0.0755	
K100W	0.0771		0.0531	0.0617	0.065					0.0749	0.0636			0.0721	0.0721	0.0761		
T114M	0.0779	0.0618		0.0958	0.0728	0.0856	0.079	0.0794	0.0466		0.07			0.068	0.0651	0.0583		
V229H	0.0752	0.0406		0.0991		0.0762	0.0771	0.0706	0.0631		0.0707					0.0735		0.0922
T71A		0.0589		0.0816	0.0509	0.0675	0.0676	0.0618	0.0571	0.061	0.0587	0.075	0.0754	0.0701		0.0716		0.0918
T129P	0.0806	0.068		0.0904	0.0715	0.071			0.0652	0.0658			0.0839		0.0627	0.0673		
Q74D	0.0733	0.0567		0.0971	0.0528	0.106	0.0789	0.0731	0.0626	0.0627	0.0563	0.0695				0.0742	0.0721	0.103
Q74G	0.0754	0.0562	0.0574	0.0969		0.0718		0.0641	0.0591	0.0647	0.0562		0.0684		0.068			0.0909
F95R	0.0585	0.0638		0.0598	0.0438	0.061		0.0603	0.0478	0.0527		0.0811	0.0636		0.0665	0.0628		0.0718
